SMILES strings stand for the structures. This is one part of the list. Most values come without repeats; read them as rough.
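Note: cell number obtained by counting DAPI-stained nuclei in high-throughput microscope images with image analysis software, screen run in 1,536-well plates.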

This assay has as its system RPMI7951. The assay is described as follows: cell count relative to DMSO control; melanoma cells; higher = more viable cells. As to conditions: library dose: low library concentration; 72 h.
Take `O=C(CCCCCCC(=O)Nc1ccccc1)NO` [vorinostat] + Cn1cncc1[C@@](N)(c1ccc(Cl)cc1)c1ccc2c(c1)c(-c1cccc(Cl)c1)cc(=O)n2C [tipifarnib] (first compound 0.08 µM, partner dose 0.01 µM): the cell count amounted to 90.3%.

Take `O=C(CCCCCCC(=O)Nc1ccccc1)NO` [vorinostat] + O=C(Nc1cccc(Cl)c1)Nc1ncc(CCNc2ncnc3ccsc23)s1 [SNS314] (first compound 0.08 µM, partner dose 0.0008 µM): the cell count worked out at 93.2%.

Consider `Nc1cccc2c1CN(C1CCC(=O)NC1=O)C2=O` (stereo unspecified) [lenalidomide] + Cn1cncc1[C@@](N)(c1ccc(Cl)cc1)c1ccc2c(c1)c(-c1cccc(Cl)c1)cc(=O)n2C [tipifarnib] (first compound 1 µM, partner dose 0.01 µM), for which the cell count was 96.7%.

In the case of `COCC[n+]1c2c(n(Cc3cnccn3)c1C)C(=O)c1ccccc1C2=O` + CC(C)(C)c1cnc(CSc2cnc(NC(=O)C3CCNCC3)s2)o1 [SNS-032] (first compound 0.0004 µM, partner dose 0.01 µM), the cell count came to 67.4%.

On to `OCc1c[nH]c2ccccc12` [Indole-3-carbinol] + COC(=O)c1sccc1S(=O)(=O)Nc1ccc(Nc2ccccc2)cc1OC [GSK0660] (first compound 0.8 µM, partner dose 1 µM), for which the cell count was found to be 119%.

The molecule `COCC[n+]1c2c(n(Cc3cnccn3)c1C)C(=O)c1ccccc1C2=O` + CN(NC(=O)CC(=O)NN(C)C(=S)c1ccccc1)C(=S)c1ccccc1 [STA4783] (first compound 0.0004 µM, partner dose 0.006 µM) gave a cell count of 78.5%.

As to `O=C(CCCCCCC(=O)Nc1ccccc1)NO` [vorinostat] + CO[C@@H]1[C@H](N(C)C(=O)c2ccccc2)C[C@H]2O[C@]1(C)n1c3ccccc3c3c4c(c5c6ccccc6n2c5c31)C(=O)NC4 [Midostaurin] (first compound 0.08 µM, partner dose 0.08 µM), the cell count is 76.7%.

Turning to `OCc1c[nH]c2ccccc12` [Indole-3-carbinol] + O=S(=O)(c1ccccc1)N(CC(F)(F)F)c1ccc(C(O)(C(F)(F)F)C(F)(F)F)cc1 [T0901317] (first compound 0.8 µM, partner dose 1.4 µM), the cell count was 97.3%.

`C#Cc1cccc(Nc2ncnc3cc(OCCOC)c(OCCOC)cc23)c1` [erlotinib] + CC(C)(C)c1cnc(CSc2cnc(NC(=O)C3CCNCC3)s2)o1 [SNS-032] (first compound 0.8 µM, partner dose 0.01 µM): the cell count amounted to 92.8%.

`OCc1c[nH]c2ccccc12` [Indole-3-carbinol] + Oc1cc(-c2nc(-c3ccccc3)[nH]c2-c2ccncc2)ccc1Cl [L779450] (first compound 0.8 µM, partner dose 0.2 µM) yielded a cell count of 93%.

Consider `Clc1ccc(Nc2nnc(Cc3ccncc3)c3ccccc23)cc1` [vatalanib] + O=C1NC(=O)/C(=C/c2ccc(-c3ccc(F)cc3O)o2)S1 [AS252424] (first compound 2 µM, partner dose 1 µM), for which the cell count turned out to be 91%.

In turn, `C#Cc1cccc(Nc2ncnc3cc(OCCOC)c(OCCOC)cc23)c1` [erlotinib] + CN(C)S(=O)(=O)c1ccc2c(c1)/C(=C/c1cc3c([nH]1)CCCC3)C(=O)N2 [SU6656] (first compound 0.8 µM, partner dose 0.4 µM) showed a cell count of 105%.

`Clc1ccc(Nc2nnc(Cc3ccncc3)c3ccccc23)cc1` [vatalanib] + O=C(Nc1cccc(Cl)c1)Nc1ncc(CCNc2ncnc3ccsc23)s1 [SNS314] (first compound 2 µM, partner dose 0.0008 µM) showed a cell count of 93.6%.

With `C#Cc1cccc(Nc2ncnc3cc(OCCOC)c(OCCOC)cc23)c1` [erlotinib] + Cc1ccc(NC(=O)c2cccc(N(C)C)c2)cc1NC(=O)c1ccc(O)cc1 [ZM336372] (first compound 0.8 µM, partner dose 2 µM), the cell count stood at 96.9%.

Turning to `Clc1ccc(Nc2nnc(Cc3ccncc3)c3ccccc23)cc1` [vatalanib] + CC1(C)NC(=O)N(c2ccc([N+](=O)[O-])c(C(F)(F)F)c2)C1=O [nilutamide] (first compound 2 µM, partner dose 1 µM), the cell count came to 87.3%.

In turn, `Clc1ccc(Nc2nnc(Cc3ccncc3)c3ccccc23)cc1` [vatalanib] + Cc1ccc(NC(=O)c2cccc(N(C)C)c2)cc1NC(=O)c1ccc(O)cc1 [ZM336372] (first compound 2 µM, partner dose 2 µM) registered a cell count of 100%.

Values taken from the supplement of paper PMC4604168 (melanoma cell lines).
